# The source gives many values for each of these; only a part stands here.
# Assay: Single dose PK in healthy subjects (Cohorts 1, 2, S1 and S2), plasma
# Assay type: in vivo, human
# Description: This study investigates (i) the safety and tolerability of Compound A (methyl (2R,3S)-3-((methylsulfonyl)amino)-2-(((cis-4-phenylcyclohexyl)oxy)methyl)piperidine-1-carboxylate) when a single dose given as a 9 hour continuous IV infusion is administered to healthy adults, healthy elderly subjects and patients with narcolepsy type 1 (NT1); (ii) the pharmacokinetics of Compound A when a single dose given as a 9 hour continuous IV infusion is administered to healthy adults, healthy elderly subjects and patients with narcolepsy type 1; and (iii) the pharmacodynamics (PD) effects of Compound A, primarily by evaluation of the sleep latency on MWT when a single dose given as a 9 hour continuous IV infusion is administered to patients with narcolepsy type 1.
# Pharmacokinetics: Concentrations of Compound A in plasma, and CSF, and pharmacokinetics parameters.
# On average, the time to reach the plateau appeared to be approximately 3 to 4 hours after the start of infusion. […] After switching off the IV infusion, Compound A plasma concentrations declined rapidly and in a biphasic manner with a mean terminal disposition phase t1/2z ranging approximately from 3.4 to 5.1 hours across all doses. […] Table 5 provides a summary of plasma concentrations of Compound A after a single IV infusion in healthy subjects. Table 6 provides a summary of pharmacokinetic parameters of Compound A after a single IV infusion in healthy subjects.
# [1] = 28 mg, 3 hr After End of Infusion
# [2] = 28 mg, 4 hr After End of Infusion
# [3] = 28 mg, 6 hr After End of Infusion
# [4] = 28 mg, 10 hr After End of Infusion
# [5] = 28 mg, 15 hr After End of Infusion
# [6] = 56 mg, 0.33 hr After End of Infusion
# [7] = 56 mg, 0.5 hr After End of Infusion
# [8] = 56 mg, 0.75 hr After End of Infusion
# [9] = 56 mg, 1 hr After End of Infusion
# [10] = 56 mg, 1.5 hr After End of Infusion
# [11] = 56 mg, 2 hr After End of Infusion
# [12] = 56 mg, 3 hr After End of Infusion
# [13] = 56 mg, 4 hr After End of Infusion
# [14] = 56 mg, 6 hr After End of Infusion
# [15] = 56 mg, 10 hr After End of Infusion
# [16] = 56 mg, 15 hr After End of Infusion
# [17] = 112 mg, 0.33 hr After End of Infusion
# [18] = 112 mg, 0.5 hr After End of Infusion
# [19] = 112 mg, 0.75 hr After End of Infusion
# [20] = 112 mg, 1 hr After End of Infusion
# [21] = 112 mg, 1.5 hr After End of Infusion
# [22] = 112 mg, 2 hr After End of Infusion
smiles,measurement,setting,value
"COC(=O)N1CCC[C@H](NS(C)(=O)=O)[C@@H]1CO[C@H]1CC[C@@H](c2ccccc2)CC1 [Compound A, methyl (2R,3S)-3-((methylsulfonyl)amino)-2-(((cis-4-phenylcyclohexyl)oxy)methyl)piperidine-1-carboxylate]","Plasma concentration, Mean",[1],8.746 ng/mL
same,"Plasma concentration, Median",[1],8.410 ng/mL
same,"Plasma concentration, Minimum",[1],5.23 ng/mL
same,"Plasma concentration, Q1",[1],7.640 ng/mL
same,"Plasma concentration, Q3",[1],9.050 ng/mL
same,"Plasma concentration, Maximum",[2],10.8 ng/mL
same,"Plasma concentration, Mean",[2],7.458 ng/mL
same,"Plasma concentration, Median",[2],7.600 ng/mL
same,"Plasma concentration, Minimum",[2],5.09 ng/mL
same,"Plasma concentration, Q1",[2],6.020 ng/mL
same,"Plasma concentration, Q3",[2],7.780 ng/mL
same,"Plasma concentration, Maximum",[3],5.79 ng/mL
same,"Plasma concentration, Mean",[3],3.948 ng/mL
same,"Plasma concentration, Median",[3],3.510 ng/mL
same,"Plasma concentration, Minimum",[3],2.34 ng/mL
same,"Plasma concentration, Q1",[3],3.040 ng/mL
same,"Plasma concentration, Q3",[3],5.060 ng/mL
same,"Plasma concentration, Maximum",[4],3.87 ng/mL
same,"Plasma concentration, Mean",[4],2.510 ng/mL
same,"Plasma concentration, Median",[4],2.440 ng/mL
same,"Plasma concentration, Minimum",[4],1.67 ng/mL
same,"Plasma concentration, Q1",[4],1.810 ng/mL
same,"Plasma concentration, Q3",[4],2.760 ng/mL
same,"Plasma concentration, Maximum",[5],2.58 ng/mL
same,"Plasma concentration, Mean",[5],1.241 ng/mL
same,"Plasma concentration, Median",[5],1.120 ng/mL
same,"Plasma concentration, Minimum",[5],0.402 ng/mL
same,"Plasma concentration, Q1",[5],0.8820 ng/mL
same,"Plasma concentration, Q3",[5],1.220 ng/mL
same,"Plasma concentration, Maximum","28 mg, Predose",0.00 ng/mL
same,"Plasma concentration, Mean","28 mg, Predose",0.000 ng/mL
same,"Plasma concentration, Median","28 mg, Predose",0.000 ng/mL
same,"Plasma concentration, Minimum","28 mg, Predose",0.00 ng/mL
same,"Plasma concentration, Q1","28 mg, Predose",0.000 ng/mL
same,"Plasma concentration, Q3","28 mg, Predose",0.000 ng/mL
same,"Plasma concentration, Maximum",[6],73.8 ng/mL
same,"Plasma concentration, Q3",[6],56.20 ng/mL
same,"Plasma concentration, Maximum",[7],69.4 ng/mL
same,"Plasma concentration, Q3",[7],53.10 ng/mL
same,"Plasma concentration, Maximum",[8],59.6 ng/mL
same,"Plasma concentration, Q3",[8],50.40 ng/mL
same,"Plasma concentration, Maximum",[9],57.0 ng/mL
same,"Plasma concentration, Q3",[9],49.50 ng/mL
same,"Plasma concentration, Maximum",[10],48.3 ng/mL
same,"Plasma concentration, Q3",[10],35.00 ng/mL
same,"Plasma concentration, Maximum",[11],34.6 ng/mL
same,"Plasma concentration, Median",[11],20.20 ng/mL
same,"Plasma concentration, Q3",[11],24.20 ng/mL
same,"Plasma concentration, Maximum",[12],27.5 ng/mL
same,"Plasma concentration, Mean",[12],18.22 ng/mL
same,"Plasma concentration, Median",[12],18.30 ng/mL
same,"Plasma concentration, Minimum",[12],10.9 ng/mL
same,"Plasma concentration, Q1",[12],13.90 ng/mL
same,"Plasma concentration, Q3",[12],20.40 ng/mL
same,"Plasma concentration, Maximum",[13],23.5 ng/mL
same,"Plasma concentration, Mean",[13],14.62 ng/mL
same,"Plasma concentration, Median",[13],14.60 ng/mL
same,"Plasma concentration, Minimum",[13],8.12 ng/mL
same,"Plasma concentration, Q1",[13],11.20 ng/mL
same,"Plasma concentration, Q3",[13],15.70 ng/mL
same,"Plasma concentration, Maximum",[14],16.4 ng/mL
same,"Plasma concentration, Mean",[14],8.382 ng/mL
same,"Plasma concentration, Median",[14],7.300 ng/mL
same,"Plasma concentration, Minimum",[14],4.44 ng/mL
same,"Plasma concentration, Q1",[14],6.650 ng/mL
same,"Plasma concentration, Q3",[14],8.200 ng/mL
same,"Plasma concentration, Maximum",[15],11.0 ng/mL
same,"Plasma concentration, Mean",[15],4.343 ng/mL
same,"Plasma concentration, Median",[15],3.370 ng/mL
same,"Plasma concentration, Minimum",[15],2.21 ng/mL
same,"Plasma concentration, Q1",[15],2.320 ng/mL
same,"Plasma concentration, Q3",[15],3.790 ng/mL
same,"Plasma concentration, Maximum",[16],5.07 ng/mL
same,"Plasma concentration, Mean",[16],1.885 ng/mL
same,"Plasma concentration, Median",[16],1.510 ng/mL
same,"Plasma concentration, Minimum",[16],0.767 ng/mL
same,"Plasma concentration, Q1",[16],0.8930 ng/mL
same,"Plasma concentration, Q3",[16],1.560 ng/mL
same,"Plasma concentration, Maximum","56 mg, Predose",0.00 ng/mL
same,"Plasma concentration, Mean","56 mg, Predose",0.000 ng/mL
same,"Plasma concentration, Median","56 mg, Predose",0.000 ng/mL
same,"Plasma concentration, Minimum","56 mg, Predose",0.00 ng/mL
same,"Plasma concentration, Q1","56 mg, Predose",0.000 ng/mL
same,"Plasma concentration, Q3","56 mg, Predose",0.000 ng/mL
same,"Plasma concentration, Maximum",[17],127 ng/mL
same,"Plasma concentration, Mean",[17],104.7 ng/mL
same,"Plasma concentration, Median",[17],105.5 ng/mL
same,"Plasma concentration, Minimum",[17],87.1 ng/mL
same,"Plasma concentration, Q1",[17],92.10 ng/mL
same,"Plasma concentration, Q3",[17],111.0 ng/mL
same,"Plasma concentration, Maximum",[18],113 ng/mL
same,"Plasma concentration, Mean",[18],95.03 ng/mL
same,"Plasma concentration, Median",[18],94.85 ng/mL
same,"Plasma concentration, Minimum",[18],78.0 ng/mL
same,"Plasma concentration, Q1",[18],86.50 ng/mL
same,"Plasma concentration, Q3",[18],103.0 ng/mL
same,"Plasma concentration, Maximum",[19],94.1 ng/mL
same,"Plasma concentration, Mean",[19],81.02 ng/mL
same,"Plasma concentration, Median",[19],83.95 ng/mL
same,"Plasma concentration, Minimum",[19],66.3 ng/mL
same,"Plasma concentration, Q1",[19],72.40 ng/mL
same,"Plasma concentration, Q3",[19],85.40 ng/mL
same,"Plasma concentration, Maximum",[20],89.2 ng/mL
same,"Plasma concentration, Mean",[20],73.08 ng/mL
same,"Plasma concentration, Median",[20],71.55 ng/mL
same,"Plasma concentration, Minimum",[20],62.8 ng/mL
same,"Plasma concentration, Q1",[20],64.10 ng/mL
same,"Plasma concentration, Q3",[20],79.30 ng/mL
same,"Plasma concentration, Maximum",[21],68.9 ng/mL
same,"Plasma concentration, Mean",[21],58.00 ng/mL
same,"Plasma concentration, Median",[21],59.00 ng/mL
same,"Plasma concentration, Minimum",[21],44.9 ng/mL
same,"Plasma concentration, Q1",[21],51.50 ng/mL
same,"Plasma concentration, Q3",[21],64.70 ng/mL
same,"Plasma concentration, Maximum",[22],53.9 ng/mL
same,"Plasma concentration, Mean",[22],42.08 ng/mL
same,"Plasma concentration, Median",[22],42.50 ng/mL
same,"Plasma concentration, Minimum",[22],31.4 ng/mL
